From paper PMC8605320
These are yes or no findings as the source states them, for the method shown. Some entries that bind do so weakly or less than the wild type. For some of these results: Where a sequence is shown, tags or fusion partners need not be part of it. One block for each binder: values may come before it.

Tests used:
[1] = molecular target: T1, SPTLC2, endogenous in mouse liver (mouse (endogenous in liver)) (UniProt P97363); assay: native gel or EMSA; blue native PAGE of gradient-purified mitochondria from mouse liver (MAMs stripped off); immunoblotted with anti-SPTLC1 and anti-SPTLC2
T1 sequence: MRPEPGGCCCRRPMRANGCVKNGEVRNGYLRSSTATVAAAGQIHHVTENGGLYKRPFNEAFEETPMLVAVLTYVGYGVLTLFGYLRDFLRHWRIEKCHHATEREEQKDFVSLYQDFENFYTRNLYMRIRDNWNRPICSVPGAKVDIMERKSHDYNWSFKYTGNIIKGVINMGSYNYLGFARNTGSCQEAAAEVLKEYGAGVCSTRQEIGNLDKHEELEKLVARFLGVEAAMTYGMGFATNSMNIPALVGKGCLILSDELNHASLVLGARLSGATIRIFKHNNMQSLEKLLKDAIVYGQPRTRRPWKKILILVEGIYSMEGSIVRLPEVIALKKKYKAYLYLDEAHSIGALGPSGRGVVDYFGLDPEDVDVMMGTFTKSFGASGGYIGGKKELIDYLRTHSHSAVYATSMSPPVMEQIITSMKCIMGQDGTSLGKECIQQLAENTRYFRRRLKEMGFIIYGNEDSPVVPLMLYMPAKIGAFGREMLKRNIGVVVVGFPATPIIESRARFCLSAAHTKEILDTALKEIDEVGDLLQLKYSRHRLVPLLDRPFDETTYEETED

[2] = molecular target: T2, WT-SPTLC2^FLAG, constitutively expressed in A431 SPTLC2-KO cells (human) (UniProt O15270); assay: native gel or EMSA; blue native PAGE of heavy membrane fractions from A431 SPTLC2-KO cells expressing WT-, ER- or OM-SPTLC2^FLAG; immunoblotted with anti-SPTLC2 and anti-SPTLC1
T2 sequence: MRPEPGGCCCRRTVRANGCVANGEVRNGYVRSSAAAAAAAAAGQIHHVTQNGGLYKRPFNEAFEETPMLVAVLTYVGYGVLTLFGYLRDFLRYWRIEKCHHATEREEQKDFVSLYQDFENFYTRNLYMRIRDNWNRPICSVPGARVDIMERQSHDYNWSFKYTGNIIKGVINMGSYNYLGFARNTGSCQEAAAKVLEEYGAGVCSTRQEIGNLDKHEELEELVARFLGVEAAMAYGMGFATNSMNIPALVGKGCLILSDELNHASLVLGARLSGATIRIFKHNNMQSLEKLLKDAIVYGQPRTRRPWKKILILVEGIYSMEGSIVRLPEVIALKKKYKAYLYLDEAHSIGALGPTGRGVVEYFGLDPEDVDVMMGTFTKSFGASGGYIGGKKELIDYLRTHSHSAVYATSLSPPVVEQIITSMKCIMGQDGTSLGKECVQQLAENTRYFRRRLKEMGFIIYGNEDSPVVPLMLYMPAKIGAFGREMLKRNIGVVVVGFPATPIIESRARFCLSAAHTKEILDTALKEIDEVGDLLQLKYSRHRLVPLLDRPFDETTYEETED

[3] = molecular target: T3, ER-SPTLC2^FLAG, constitutively expressed in A431 SPTLC2-KO cells (human) (UniProt O15269+O15270); assay: as above
T3 sequence: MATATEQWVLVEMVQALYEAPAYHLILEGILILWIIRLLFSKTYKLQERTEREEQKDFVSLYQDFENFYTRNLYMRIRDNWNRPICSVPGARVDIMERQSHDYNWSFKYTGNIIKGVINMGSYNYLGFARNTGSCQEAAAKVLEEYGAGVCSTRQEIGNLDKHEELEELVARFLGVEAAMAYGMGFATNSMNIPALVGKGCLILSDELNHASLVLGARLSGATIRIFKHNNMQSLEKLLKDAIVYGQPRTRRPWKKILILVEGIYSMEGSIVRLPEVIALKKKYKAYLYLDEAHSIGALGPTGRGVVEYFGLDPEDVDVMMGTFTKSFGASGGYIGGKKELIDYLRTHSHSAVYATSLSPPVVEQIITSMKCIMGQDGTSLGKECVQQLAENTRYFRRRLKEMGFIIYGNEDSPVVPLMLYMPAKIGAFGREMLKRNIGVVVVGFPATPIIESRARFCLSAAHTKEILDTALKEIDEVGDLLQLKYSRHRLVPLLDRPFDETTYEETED

[4] = molecular target: T4, OM-SPTLC2^FLAG, constitutively expressed in A431 SPTLC2-KO cells (UniProt O15270); assay: as above
T4 sequence: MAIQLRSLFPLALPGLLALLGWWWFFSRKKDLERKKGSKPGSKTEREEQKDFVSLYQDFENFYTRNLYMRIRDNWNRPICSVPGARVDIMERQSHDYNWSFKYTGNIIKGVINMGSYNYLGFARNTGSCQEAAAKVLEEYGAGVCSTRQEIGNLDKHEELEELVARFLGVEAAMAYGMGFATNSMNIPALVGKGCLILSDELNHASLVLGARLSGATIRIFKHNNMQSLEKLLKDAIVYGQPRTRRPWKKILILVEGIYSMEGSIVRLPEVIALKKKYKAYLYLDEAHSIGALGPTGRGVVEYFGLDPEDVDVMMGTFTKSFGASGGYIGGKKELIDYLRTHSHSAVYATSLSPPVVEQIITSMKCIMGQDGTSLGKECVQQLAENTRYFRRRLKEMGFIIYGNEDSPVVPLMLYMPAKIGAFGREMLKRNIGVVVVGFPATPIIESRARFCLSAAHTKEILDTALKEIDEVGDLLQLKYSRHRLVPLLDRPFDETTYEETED

binding [1]: no binding
B1: SPTLC2, endogenous in mouse liver (enzyme, UniProt P97363 1-560)
chain: T1 sequence

binding [2]: binds
binding [3]: binds
binding [4]: binds
B2: SPTLC1, endogenous in A431 cells (enzyme, UniProt O15269 1-473)
chain: MATATEQWVLVEMVQALYEAPAYHLILEGILILWIIRLLFSKTYKLQERSDLTVKEKEELIEEWQPEPLVPPVPKDHPALNYNIVSGPPSHKTVVNGKECINFASFNFLGLLDNPRVKAAALASLKKYGVGTCGPRGFYGTFDVHLDLEDRLAKFMKTEEAIIYSYGFATIASAIPAYSKRGDIVFVDRAACFAIQKGLQASRSDIKLFKHNDMADLERLLKEQEIEDQKNPRKARVTRRFIVVEGLYMNTGTICPLPELVKLKYKYKARIFLEESLSFGVLGEHGRGVTEHYGINIDDIDLISANMENALASIGGFCCGRSFVIDHQRLSGQGYCFSASLPPLLAAAAIEALNIMEENPGIFAVLKEKCGQIHKALQGISGLKVVGESLSPAFHLQLEESTGSREQDVRLLQEIVDQCMNRSIALTQARYLEKEEKCLPPPSIRVVVTVEQTEEELERAASTIKEVAQAVLL
